The values below come from article PMC12040169 (PLOS Biology, 2025).

The list shows a part of the results.

The subject of this assay is T1, C. trachomatis L2/434/Bu expressing GFP (CTL2-GFP).
T1 construct: L2/434/Bu GFP intracellular growth in HeLa cells
More on the design: species or system HeLa; C. trachomatis total inclusion area by high-content imaging, normalised to DMSO. Conditions: total inclusion area; 28.5 h, 10 µM; inhibitor. The method in brief: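 Bulk GFP and resorufin signals were read first. Wells were then fixed, stained with Hoechst and imaged to detect GFP inclusions and host nuclei. MICs followed the previously described calculation.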
For the molecule `COc1ccccc1C1(CCNCc2ccc3c(c2)OCO3)CCOC(C)(C)C1` (stereo not drawn) [CBK265599G], the “% of control remaining” value turned out to be 72.8205.
With `COc1ccc(CN2C(=O)CC(C(=O)O)S/C2=N\c2ccc(Cl)cc2)cc1` (stereo not drawn) [CBK287259] the figure was 66.1176; with `CC(CCN(C)CCN(C)C)c1ccccc1` (stereo not drawn) [CBK261871], 99.0144; with `CCN1CCCCC1CNC(=O)Cn1nc(C)c(C)c1C` (stereo not drawn) [CBK282208], 99.9986.
`C(=N\n1cnnc1)/c1ccccc1OCc1cccc2ccccc12` [CBK263864]: the “% of control remaining” value is recorded as 99.1223.
In the case of `COc1cc(-c2ccc(/N=C/c3ccccc3O)c(OC)c2)ccc1/N=C/c1ccccc1O` [CBK261089], the “% of control remaining” value is 89.869.
For `Cc1cccc(NC(=O)NCc2ccccn2)c1` [CBK269422], the “% of control remaining” value is on record as 84.9285.
As for `O=C(CN1C(=O)c2ccccc2C1=O)NCc1ccc(C(=O)O)cc1` [CBK262795], the “% of control remaining” value is listed as 95.323.
Turning to `O=S(=O)(CCc1ccccc1)N1CCCn2nc(-c3ccncc3)cc2C1` [CBK288608], the “% of control remaining” value turned out to be 100.114.
For `Cn1cc(Cl)c(C2CCCCCN2C(=O)c2ccco2)n1` (stereo not drawn) [CBK285105], the “% of control remaining” value was 116.212.
With `CCc1ccc(CNC(=O)Cn2nnc(-c3ccc(CNCCc4ccc(OC)c(OC)c4)cc3)n2)cc1` [CBK155008T], the “% of control remaining” value is listed as 24.7638.
Take `Cc1nc(C)c(C(=O)N2CCC(c3cc4cnccc4[nH]3)CC2)s1` [CBK283432]: the “% of control remaining” value stood at 47.2049.
With `Cc1oc2nc(SCC(=O)NCc3cccnc3)nc(N)c2c1C` [CBK266178] the figure was 97.5525.
Take `O=C(c1cnn(-c2ccccc2)c1)N1CCc2[nH]c3ccccc3c2C1` [CBK281853]: the “% of control remaining” value was determined as 118.207.
Take `CCCN(CC(=O)NCc1ccco1)Cc1nnc(-c2ccco2)o1` [CBK305302]: the “% of control remaining” value is on record as 19.3894.
With `OCCN1CCN(Cc2cc(Br)cs2)CC1` [CBK261758] the figure was 111.622.
With `Cc1nccn1CCCNC(=O)c1cccc(N2CCCCC2)c1` [CBK281646] the figure was 85.9558; with `CCn1c(Cc2ccccc2)nnc1SCC(=O)Nc1cc(Cl)ccc1O` [CBK268689], 87.3267; with `CCOC(=O)CN1CCCN(c2ccnc(OC3CCCCC3)n2)CC1` [CBK083864], 72.624.
For `CCCn1cnnc1C(C)NC(=O)N(C)Cc1nc2cccc(C)c2[nH]1` (stereo not drawn) [CBK307551], the “% of control remaining” value is 37.3417.
With `Cc1ccc(NCC2CCN(c3cc(=O)n4oc(C)cc4n3)C2)nc1` (stereo not drawn) [CBK305827] the figure was 90.4303.
Take `c1ccc(Oc2nc3ccccc3n3cnnc23)cc1` [CBK287945]: the “% of control remaining” value was found to be 107.759.
As to `CCOC(=O)c1cnc2ccc(OC)cc2c1NCCN1CCOCC1` [CBK304199], the “% of control remaining” value is reported as 29.6916.
The figure for `O=C1Nc2ccc(Br)cc2C(=O)N2CCNC[C@H]12` [CBK289583] is 104.128; for `CC1=C[C@@H](CO)[C@H](C(C)C)C[C@H]1Cc1nnc(Cc2c[nH]c3ccccc23)o1` [CBK289223] it is 106.464; for `Fc1cccc(-c2nccnc2NCCc2ccncc2)c1` [CBK036763] it is 114.846.
With `NC1=C2NN(c3ccc(Cl)cc3Cl)N=C2N(c2ccccc2)N1` [CBK107773], the “% of control remaining” value is on record as 65.2927.
The figure for `Fc1cc(Br)ccc1COc1cccnc1Cl` [CBK161281] is 58.679.
For the molecule `CCC1CCCCN1S(=O)(=O)c1cccc2c(S(=O)(=O)N3CCCCC3CC)cccc12` (stereo not drawn) [CBK262073], the “% of control remaining” value is given as 98.9361.
On to `CC(C)[C@H](NC(=O)c1cc2cc(Cl)ccc2n1C)C(=O)N1CCC(C(=O)O)CC1` [CBK286771], for which the “% of control remaining” value came out at 83.0673.
As to `O=C(O)c1ccc2c(c1)c(C(C(=O)O)N1CCCC1)cn2Cc1ccccc1` (stereo not drawn) [CBK286633], the “% of control remaining” value is listed as 78.7717.
As for `COc1ccc(CN2CCC(N3CCN(c4ccccc4F)CC3)CC2)cc1OCc1ccccc1` [CBK264720G], the “% of control remaining” value is 99.9622.
For `O=C1C[C@H]2[C@H](CC3(SCCS3)[C@@H]2CO)O1` [CBK006615], the “% of control remaining” value came out at 72.7376.
Consider `O=C(OCc1csc2ccc(Cl)cc12)N1CCOCC1` [CBK200164], for which the “% of control remaining” value was determined as 111.878.
Turning to `CCCCNC(=O)CCn1c(=O)[nH]c2ccccc2c1=O` [CBK287824], the “% of control remaining” value is given as 85.9196.
Consider `Cc1nn(C)c(C)c1-c1ccc(=O)n(Cc2ccc(F)cc2)n1` [CBK282258], for which the “% of control remaining” value is recorded as 73.4965.
Regarding `COc1ccc(C(C)C)cc1-c1nccnc1NCc1ccco1` [CBK036672], the “% of control remaining” value worked out at 145.205.
Consider `Cc1cc(C(=O)O)ccc1-c1ccc(/C=N/n2cnnc2)o1` [CBK264713], for which the “% of control remaining” value was 104.665.
Consider `COc1cccc2c(O)cnnc12` [CBK026139], for which the “% of control remaining” value stood at 42.2453.
The figure for `CC1CN(S(=O)(=O)c2ccc3c(c2)C(=O)c2cc(S(=O)(=O)N4CC(C)OC(C)C4)ccc2-3)CC(C)O1` (stereo not drawn) [CBK263355] is 113.087.
With `O=C(O)COCC(=O)N[C@H]1CCN2C(=O)c3ccc(Cl)cc3NC(=O)[C@H]12` [CBK289342], the “% of control remaining” value stood at 115.578.
As to `Cc1noc(COc2ccc(OCc3nc(C)no3)cc2)n1` [CBK261364], the “% of control remaining” value is 109.457.
In the case of `Cc1ccc(OCc2cccc3nsnc23)cc1[N+](=O)[O-]` [CBK266063], the “% of control remaining” value was determined as 87.7606.
Take `CC(=O)Nc1ccc(S(=O)(=O)Nc2ccc(-c3csc(C)n3)cc2)cc1` [CBK266261]: the “% of control remaining” value is on record as 113.946.
Take `Cc1oc(-c2ccccc2)cc1C(=O)Nc1ccccc1N1CCCNCC1` [CBK038940T]: the “% of control remaining” value is 76.0373.
For the molecule `c1cncc(C(N2CCOCC2)N2CCOCC2)c1` [CBK260999], the “% of control remaining” value was 99.8376.
Take `FC(F)(F)c1nc2ccccc2nc1Sc1ccccn1` [CBK093781]: the “% of control remaining” value worked out at 88.4807.
As for `Cn1ccnc1C1(O)CCN(C(=O)c2ccc(F)cc2)CC1` [CBK283541], the “% of control remaining” value amounted to 106.483.
The figure for `CCc1ccc(OCc2nnc(SCC(=O)NCCCC(=O)O)n2CC(C)C)cc1` [CBK295321] is 108.934.
With `CCCCc1ccc(-c2nc(NC(=O)NCC)cc3cccnc23)cc1` [CBK081231], the “% of control remaining” value came to 51.5181.
As for `Cc1ccc(CNC(=O)COc2ccc(S(=O)(=O)N3CCOCC3)cc2)cc1` [CBK269816], the “% of control remaining” value is 97.131.
Take `Cc1ccc(C2=CCN(CC(=O)NCc3ccco3)CC2)o1` [CBK283632]: the “% of control remaining” value was 94.3124.
On to `O=C(O)c1cccc(Cn2c(C3CC3)n[nH]c2=S)c1` [CBK288401], for which the “% of control remaining” value worked out at 61.6963.
On to `CCOC(=O)CCSc1c(CC)c(C)nc2ccccc12` [CBK153457T], for which the “% of control remaining” value turned out to be 91.4525.
Take `CCn1cc(Cl)c(C(=O)NC2CCN(c3nc(C)cc(=O)[nH]3)CC2)n1` [CBK304614]: the “% of control remaining” value stood at 77.5565.
For the molecule `Cc1cc2nc3c(nc2cc1C)CCNCC3` [CBK012302], the “% of control remaining” value turned out to be 94.5279.
In the case of `Cc1ccc(S(=O)(=O)Nc2ccccc2CNc2ccccn2)cc1` [CBK264198], the “% of control remaining” value came out at 92.417.
Turning to `CCC1CCCCN1C(=O)c1cc2ccccc2s1` (stereo not drawn) [CBK074211], the “% of control remaining” value was found to be 100.708.
For the molecule `CC(=O)NCC(=O)Nc1cnc(-c2cccc(C(F)(F)F)c2)c(-c2cccnc2)n1` [CBK036809], the “% of control remaining” value is 83.7834.
As to `COc1cc(/C=C2/SC(=S)N(CCC(=O)N3CCN(C)CC3)C2=O)cc(OC)c1OC` [CBK263656], the “% of control remaining” value is 94.7472.
As to `COc1ccc(C(C)C)cc1-c1cn2ccnc2c(Nc2ccc(N3CCOCC3)cc2)n1` [CBK037338], the “% of control remaining” value came to 112.465.
Consider `CCn1c2cc(C)sc2c2cnn(CCN3CCCC3)c(=O)c21` [CBK284151], for which the “% of control remaining” value stood at 87.4249.
On to `Cn1c(=O)n(CC(=O)NCc2ccc(F)cc2)c2cccnc21` [CBK283908], for which the “% of control remaining” value is given as 76.1809.
The figure for `CC1=NC2c3ccsc3C=CC2S1` (stereo not drawn) [CBK008720] is 111.685.
On to `Nc1ncc(-c2cc(C(F)(F)F)cc(C(F)(F)F)c2)nc1NCCCO` [CBK063546], for which the “% of control remaining” value stood at 99.5205.
With `COc1ccc(CCCC(=O)NCc2ccc(OC3CCNCC3)cc2)cc1OC` [CBK028428T] the figure was 89.769; with `CC(Cc1ccsc1)NS(=O)(=O)c1cccc(C(=O)N2CCCC2)c1` (stereo not drawn) [CBK306923], 73.2483.
In the case of `COCCc1noc(CC2CCN(c3ncc(C#N)cc3F)CC2)n1` [CBK304153], the “% of control remaining” value was 79.8111.
Regarding `O=C(NC(C(=O)N/N=C/c1cccs1)c1n[nH]c(=O)c2ccccc12)c1ccccc1` (stereo not drawn) [CBK261250], the “% of control remaining” value is on record as 85.5255.
Turning to `N#Cc1ccc(OCC(=O)Nc2cccnc2-n2cncn2)cc1` [CBK306004], the “% of control remaining” value was 20.5652.
As for `Cc1n[nH]c2c1C(c1ccc(C(=O)O)cc1)C1=C(COC1=O)N2` (stereo not drawn) [CBK286546], the “% of control remaining” value was found to be 100.945.
`COc1ccccc1NC(=O)NCCC1SC(NC2CCCCCC2)=NC1=O` (stereo not drawn) [CBK067473]: the “% of control remaining” value came to 96.0285.
With `c1csc(-c2nn3c(Cn4nnc5ccccc54)nnc3s2)c1` [CBK268204], the “% of control remaining” value stood at 93.2674.
With `O=S(=O)(NCc1cccc(F)c1F)c1cc2c(N3CCNCC3)nccc2s1` [CBK047588C] the figure was 91.1397; with `O=C1CCC(=O)N1CCOc1nccnc1N1CCN(Cc2ccccc2)CC1` [CBK084288], 88.9002.
With `Cc1cnc2c(Cl)c(C(=O)N3CCC4(CCCNC4)C3)nn2c1` (stereo not drawn) [CBK307472] the figure was 86.2077; with `COc1ccc([N+](=O)[O-])cc1CSc1nnc(COc2ccccc2C)n1C` [CBK265820], 109.086; with `O=C(O)c1ccc(CSc2nnc(-c3ccncc3)n2-c2ccc(Br)cc2)cc1` [CBK267559], 91.9304.
As for `O=[N+]([O-])c1ccc(CN2CCC(Oc3nccnc3OC3CCCCC3)CC2)cc1` [CBK082861T], the “% of control remaining” value turned out to be 84.8248.
The figure for `CC(C)C(=O)N1CCC(n2nc(-c3ccco3)ccc2=O)CC1` [CBK284244] is 73.1768; for `CCN(CC)CCN1C(=O)c2oc3cc(C)c(C)cc3c(=O)c2C1c1cc(Br)c(O)c(OC)c1` (stereo not drawn) [CBK266846] it is 111.604.
